In PubChem BioAssay (Tox21):
Several values for one entry are separate records, joined by “and”; a condition that tells them apart may be missing. Equal entries are not always repeated. Inconclusive results, whose numbers are uncertain, are shown with a selection of clear calls. For some assays here: Potencies of inconclusive entries are doubtful fits and often do not repeat. Activity calls are given as the source filed them. Unless noted, calls follow the shape of the dose curve; as a rule, active = well fitted curve in the direction sought with a large enough effect in the repeat runs; inconclusive = weak or mixed curves; inactive = no such curve, though single readings can be large; an effect the other way counts as inactive or inconclusive.

Columns and labels:
[1] = qHTS assay to identify small molecule antagonists of the retinoic acid receptor (RAR) signaling pathway (AID 1159552; also: nearly all actives have a fitted effect of over 50% in size; also: potency is read from the fitted curve at half-maximal effect)
In short: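 Luminescent RARE reporter read-out in C3RL4 cells: 6 hr co-treatment at 37 C of test compounds with retinol at 1 uM final. Cells plated overnight beforehand; luciferase reagent incubated 30 min at room temperature before reading.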

[2] = biological target: Luciferin 4-monooxygenase (Photinus pyralis) (UniProt P08659); assay: qHTS assay to identify small molecule inhibitors of firefly luciferase (AID 1224835); also: nearly all actives have a fitted effect of over 25% in size; also: potency is read from the fitted curve at half-maximal effect
In short: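 Biochemical qHTS: compounds run as interplate titrations against purified firefly enzyme, with D-luciferin and ATP each at its KM concentration. Light output recorded by CCD imaging.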

[3] = qHTS assay to identify small molecule agonists of the constitutive androstane receptor (CAR) signaling pathway - cell viability counter screen (AID 1224836); also: potency is read from the fitted curve at half-maximal effect; nearly all actives have a fitted effect of over 45% in size
In short: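 Cell viability multiplexed with the CAR agonist screen: CellTiter-Fluor fluorescence after 23 hr at 37 C. HepG2-CYP2B6-hCAR cells got compounds at 15 concentrations with PK11195 at 0.75 uM final.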

[4] = qHTS assay to identify small molecule antagonists of the constitutive androstane receptor (CAR) signaling pathway - cell viability counter screen (AID 1224837); also: nearly all actives have a fitted effect of over 45% in size; also: potency is read from the fitted curve at half-maximal effect
In short: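 To flag cytotoxic false antagonists, HepG2 hCAR/CYP2B6-2.2kb cells were treated 23 hr with 15-concentration compound series and 50 nM CITCO at 37 C/5% CO2; CellTiter-Fluor fluorescence was the measured end point.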

[5] = biological target: Nuclear receptor subfamily 1 group I member 3 (Homo sapiens) (UniProt Q14994); assay: qHTS assay to identify small molecule agonists of the constitutive androstane receptor (CAR) signaling pathway (AID 1224839); also: potency is read from the fitted curve at half-maximal effect; nearly all actives have a fitted effect of over 15% in size
In short: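 Luminescent ONE-Glo read-out after 24 hr, 37 C exposure of double-stable HepG2-CYP2B6-hCAR reporter cells to a 15-point compound series, in the presence of 0.75 uM PK11195 (final).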

[6] = qHTS assay to identify small molecule agonists of the hypoxia (HIF-1) signaling pathway - cell viability counter screen (AID 1224844; calls by dose curve; also: potency is read from the fitted curve at half-maximal effect; nearly all actives have a fitted effect of over 50% in size)
In short: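 HRE-bla ME-180; 0.5% dFBS; cpd 17 h, 37C, 5% CO2; CellTiter-Glo lum., 30 min RT, post-FRET read, same wells.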

[7] = biological target: Nuclear receptor subfamily 1 group I member 3 (Homo sapiens) (UniProt Q14994); assay: qHTS assay to identify small molecule antagonists of the constitutive androstane receptor (CAR) signaling pathway (AID 1224838);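 also: HepG2 cells stably expressing hCAR with CYP2B6 luciferase reporter stimulated by CITCO; potency is read from the fitted curve at half-maximal effect; nearly all actives have a fitted effect of over 40% in size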
In short: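 Human hepatoma HepG2 cells expressing hCAR and a CYP2B6 promoter (2.2 kb) luciferase construct; compound titration (15 points) with 50 nM CITCO final, 24 h at 37 C/5% CO2; luminescence via ONE-Glo after 30 min at room temperature.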

[8] = qHTS assay to identify small molecule antagonists of the estrogen related receptor signaling pathway with the pleiotropic PPARgamma coactivator (PGC) from Tox21 10K library - cell viability counter screen (AID 1224840; active = well fitted cell-killing curve with a large enough effect in the repeat runs, not every such curve was filed as active; inconclusive = weak or mixed curves, or effect the other way; inactive = no such curve, though single readings can be large or run the other way; also: nearly all actives have a fitted effect of over 40% in size; also: potency is read from the fitted curve at half-maximal effect)
In short: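 Seeded PGC/ERR cells (2,000/well, 6 h, 37 C/5% CO2) get compound by pin tool; 17.5 h incubation at 37 C; CellTiter-Fluor added, 30 min, fluorescence measured.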

[9] = biological target: Thyrotropin receptor (Homo sapiens) (UniProt P16473); assay: qHTS assay to identify small molecule agonists of the thyroid stimulating hormone receptor (TSHR) signaling pathway (AID 1224843; calls by dose curve; also: potency is read from the fitted curve at half-maximal effect; nearly all actives have a fitted effect of over 45% in size); conditions: TSHR-HEK293 cells, cAMP HTRF, agonist mode, 30 min; activation: at 92.4 µM (top of the series) unless noted
In short: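 HEK293/TSHR, 800 cells/well; cpd 30 min RT; add cAMP-d2 + anti-cAMP-cryptate, 1 h RT; fluorescence read on plate reader. 15-pt titration, n=3.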

[10] = qHTS assay to identify small molecule agonists of the estrogen related receptor signaling pathway with the pleiotropic PPARgamma coactivator (PGC) from Tox21 10K library (AID 1224842); also: nearly all actives have a fitted effect of over 15% in size
In short: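 PGC/ERR reporter cell line, 2,000 cells per well, incubated 6 h at 37 C before 23 nL compound in DMSO was added. After 18 h at 37 C, One-Glo luminescence read following 30 min at room temperature.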

[11] = qHTS assay to identify small molecule agonists of the retinoic acid receptor (RAR) signaling pathway (AID 1159553); conditions: C3RL4 RARE luciferase reporter, agonist, 6 h; activation: at 73.3 µM (top of the series) unless noted; also: potency is read from the fitted curve at half-maximal effect
In short: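 6 hr compound exposure (DMSO vehicle) of overnight-plated C3RL4 RARE-luc cells at 37 C; luminescence quantified after 30 min RT with luciferase reagent.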

[12] = qHTS assay to identify small molecule antagonists of the estrogen related receptor (ERR) signaling pathway from Tox21 library - cell viability counter screen (AID 1224834); also: potency is read from the fitted curve at half-maximal effect; nearly all actives have a fitted effect of over 30% in size
In short: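 Seeded ERR cells were rested 6 h at 37 C/5% CO2 before compounds, positive and negative controls or DMSO were added. Incubation continued for 17.5 h, and viability was then quantified by CellTiter-Fluor fluorescence.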
Tags tell the direction and shape of the fitted curve or compound fluorescence and quenching.

UniProt P08659, sequence (P08659 whole entry, looked up): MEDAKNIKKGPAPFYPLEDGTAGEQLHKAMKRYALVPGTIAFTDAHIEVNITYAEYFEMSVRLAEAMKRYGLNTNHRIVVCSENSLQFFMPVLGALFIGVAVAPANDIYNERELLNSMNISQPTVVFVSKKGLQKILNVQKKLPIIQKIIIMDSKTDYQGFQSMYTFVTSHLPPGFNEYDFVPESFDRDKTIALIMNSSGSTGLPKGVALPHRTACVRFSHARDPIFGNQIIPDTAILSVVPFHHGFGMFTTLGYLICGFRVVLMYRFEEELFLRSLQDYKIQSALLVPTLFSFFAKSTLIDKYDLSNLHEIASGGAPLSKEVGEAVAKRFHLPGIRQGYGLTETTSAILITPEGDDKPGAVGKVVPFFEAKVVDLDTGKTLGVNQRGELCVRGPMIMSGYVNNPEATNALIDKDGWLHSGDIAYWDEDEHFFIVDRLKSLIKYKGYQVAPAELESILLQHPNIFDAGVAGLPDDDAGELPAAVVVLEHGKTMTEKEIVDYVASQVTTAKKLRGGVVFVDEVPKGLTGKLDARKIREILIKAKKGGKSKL
UniProt Q14994, sequence (Q14994 whole entry, looked up): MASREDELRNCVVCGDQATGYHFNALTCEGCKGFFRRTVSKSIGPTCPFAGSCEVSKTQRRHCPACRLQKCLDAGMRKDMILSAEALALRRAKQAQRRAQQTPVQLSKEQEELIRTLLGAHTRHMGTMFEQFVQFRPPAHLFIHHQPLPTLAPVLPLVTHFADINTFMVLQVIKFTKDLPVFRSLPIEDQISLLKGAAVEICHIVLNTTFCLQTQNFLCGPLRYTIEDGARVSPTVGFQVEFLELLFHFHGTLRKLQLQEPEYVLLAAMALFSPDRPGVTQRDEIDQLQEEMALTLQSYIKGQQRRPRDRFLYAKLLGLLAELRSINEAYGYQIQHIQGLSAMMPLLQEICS
UniProt P16473, sequence (P16473 whole entry, looked up): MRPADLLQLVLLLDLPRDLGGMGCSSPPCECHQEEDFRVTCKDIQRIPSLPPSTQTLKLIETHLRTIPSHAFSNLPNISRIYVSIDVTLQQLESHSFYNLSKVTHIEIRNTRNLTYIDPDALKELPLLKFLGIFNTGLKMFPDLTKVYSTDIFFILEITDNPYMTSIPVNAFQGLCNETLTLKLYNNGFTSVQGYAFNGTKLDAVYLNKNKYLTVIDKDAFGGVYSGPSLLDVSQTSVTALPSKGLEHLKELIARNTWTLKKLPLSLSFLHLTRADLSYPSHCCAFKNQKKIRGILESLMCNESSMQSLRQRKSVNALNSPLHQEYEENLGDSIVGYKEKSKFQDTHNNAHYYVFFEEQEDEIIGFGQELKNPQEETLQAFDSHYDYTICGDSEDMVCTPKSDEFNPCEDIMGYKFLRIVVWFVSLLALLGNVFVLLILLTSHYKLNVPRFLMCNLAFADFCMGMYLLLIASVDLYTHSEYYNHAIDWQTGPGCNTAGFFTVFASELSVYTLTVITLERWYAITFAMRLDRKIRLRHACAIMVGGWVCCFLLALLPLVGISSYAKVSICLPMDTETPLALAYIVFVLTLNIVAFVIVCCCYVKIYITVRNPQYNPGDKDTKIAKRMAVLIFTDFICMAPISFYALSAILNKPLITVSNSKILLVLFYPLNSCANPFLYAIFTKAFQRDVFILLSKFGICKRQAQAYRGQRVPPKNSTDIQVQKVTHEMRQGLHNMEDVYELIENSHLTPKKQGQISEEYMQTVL

In the case of `CC(C)(C)C(=O)C1C(=O)c2ccccc2C1=O`, the Potency [1] was inconclusive: 7.7 µM [inhibitor, full curve], the Potency [2] was active: 31.4 µM and inconclusive: 44.8 µM [inhibitor, partial curve] and the Potency [3] was inconclusive: 53.9 µM [cytotoxic, partial curve] and inconclusive: 68.6 µM [cytotoxic]. For the same compound, the Potency [4] was inconclusive: 48.1 µM [cytotoxic, partial curve] and inconclusive: 61.1 µM [cytotoxic], the Potency [5] was inconclusive: 60.5 µM [activator] and inconclusive: 61.1 µM [activator, single point] and the Potency [6] was inconclusive: 34.3 µM [cytotoxic, partial curve, poor fit].
With `O=[N+]([O-])c1cc(C2CCCCC2)c(O)c([N+](=O)[O-])c1` the Potency [1] was inconclusive: 19.3 µM [inhibitor, full curve], the Potency [3] was active: 12.2 µM and the Potency [4] was active: 15.3 µM. For the same compound, the Potency [7] was inconclusive: 15.3 µM [inhibitor, single point], the Potency [8] was active: 12.2 µM and the Potency [6] was inconclusive: 61.5 µM [cytotoxic, single point].
For `CCCCNc1c(C(=O)OCC)c(C)nc2c1cnn2CC`, the Potency [1] was “inactive”, the Potency [4] was “inactive” and the Potency [5] was inconclusive: 29.8 µM [activator, partial curve, poor fit].
With `Cc1cc2c(OCC(CNC(C)(C)C)OC(=O)c3ccccc3)cccc2[nH]1` (stereo unspecified) the Potency [1] was inconclusive: 29.8 µM [inhibitor, partial curve] and the Potency [9] was active: 26.6 µM.
For `O=C1Cc2cc(Cl)ccc2N1`, the Potency [1] was inconclusive: 0.0024 µM [inhibitor, full curve, poor fit], the Potency [5] was inconclusive: 15 µM [activator, partial curve] and the Potency [10] was “inactive”.
With `CCCCC(CC)COC(=O)CCCCC(=O)OCc1ccccc1` (stereo unspecified) the Potency [1] was “inactive” and the Potency [8] was “inactive”.
For `CC(C)(C)CC(=O)OCC(=O)[C@@]1(O)CC[C@H]2[C@@H]3CCC4=CC(=O)C=C[C@]4(C)[C@H]3[C@@H](O)C[C@@]21C`, the Potency [1] was active: 33.5 µM and the Potency [6] was inconclusive: 13.4 µM [cytotoxic, partial curve, poor fit].
In the case of `CCCCCCCC/C=C\CCCCCCCCCCCC(=O)O`, the Potency [1] was “inactive” and the Potency [6] was inconclusive: 25 µM [rising, full curve].
With `COc1cccc(N)c1` the Potency [11] was inconclusive: 77.5 µM [activator, partial curve, poor fit].
With `O=[Se](O)O` the Potency [1] was “inactive and inconclusive: 1.86 µM [inhibitor, partial curve, poor fit]”, the Potency [12] was inconclusive: 68.7 µM [cytotoxic, single point] and the Potency [3] was inconclusive: 10.4 µM [cytotoxic, partial curve, poor fit]. The Potency [4] was active: 48.6 µM and inconclusive: 5.23 µM [cytotoxic, partial curve, poor fit].
In the case of `Oc1ccc(Cl)c2cccnc12`, the Potency [11] was inconclusive: 2.98 µM [inhibitor, full curve], the Potency [12] was inconclusive: 33.5 µM [cytotoxic, single point] and the Potency [3] was inconclusive: 33.5 µM [cytotoxic]. The Potency [4] was inconclusive: 26.6 µM [cytotoxic, single point], the Potency [7] was inconclusive: 13.3 µM [inhibitor, partial curve] and the Potency [5] was inconclusive: 13.3 µM [activator, partial curve].
In the case of `CSC(=O)c1cccc2nnsc12`, the Potency [11] was “inactive”.
For `Nc1ccc2cc3ccccc3cc2c1`, the Potency [11] was active: 5.54 µM and active: 34.4 µM, the Potency [12] was inconclusive: 55.4 µM [rising, partial curve] and the Potency [4] was inconclusive: 27.8 µM [rising, partial curve] and inconclusive: 54.5 µM [rising, partial curve]. For the same compound, the Potency [8] was inconclusive: 55.4 µM [rising, partial curve].
For `COc1ccccc1NC(=O)c1cc2ccccc2cc1O`, the Potency [11] was inconclusive: 5.45 µM [activator, partial curve, poor fit], the Potency [12] was inconclusive: 24.3 µM [cytotoxic, full curve] and the Potency [5] was active: 17.2 µM. For the same compound, the Potency [6] was inconclusive: 19.5 µM [rising, partial curve, poor fit].
For `N#CC1(c2ccc(F)cc2)CCC(=O)CC1`, the Potency [11] was “inactive” and the Potency [2] was “inactive”.
In the case of `CC(CCc1ccc2c(c1)OCO2)NN` (stereo unspecified), the Potency [11] was inconclusive: 26.6 µM [activator, partial curve].
For `CCC(C)(C)C1CCCCC1OC(C)=O` (stereo unspecified), the Potency [11] was inconclusive: 54.5 µM [inhibitor, single point].
In the case of `CC1=C(/C=C/C(C)=C/C=C/C(C)=C/C(=O)O)C(C)(C)CCC1`, the Potency [11] was active: 19.4 nM and active: 9.7 nM and active: 84.1 nM, the Potency [12] was inconclusive: 68.5 µM [cytotoxic, single point] and the Potency [2] was inconclusive: 89.5 µM [inhibitor, single point]. For the same compound, the Potency [5] was active: 27.3 µM and active: 24.3 µM and active: 10.6 µM, the Potency [8] was inconclusive: 68.5 µM [cytotoxic] and the Potency [6] was inconclusive: 54.9 µM [cytotoxic, single point] and inconclusive: 26.8 µM [cytotoxic, single point].
